Several values for one entry are separate records, joined by “and”; a condition that tells them apart may be missing. Equal entries are not always repeated. Values belong to the binder of their own block, whether it stands above or below them.
How the values were obtained:
[1] = biological target: T1, VEGF-A165 (UniProt P15692-4 27-191); experiment: blocking ELISA: His-VEGF-A165 premixed with sample, binding to coated VEGFR1-Fc read with anti-His-HRP
T1 construct: Bought reagent
T1 sequence (looked up): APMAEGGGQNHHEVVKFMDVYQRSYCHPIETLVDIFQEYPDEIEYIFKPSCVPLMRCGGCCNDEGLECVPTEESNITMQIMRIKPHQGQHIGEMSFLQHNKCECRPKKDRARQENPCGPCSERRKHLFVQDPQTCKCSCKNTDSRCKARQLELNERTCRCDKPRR

[2] = biological target: T2, VEGF-C (UniProt P49767 112-227, limits assumed); experiment: blocking ELISA: His-VEGF-C premixed with sample, binding to coated VEGFR2-Fc read with anti-His-HRP
T2 construct: Bought reagent
T2 sequence (looked up): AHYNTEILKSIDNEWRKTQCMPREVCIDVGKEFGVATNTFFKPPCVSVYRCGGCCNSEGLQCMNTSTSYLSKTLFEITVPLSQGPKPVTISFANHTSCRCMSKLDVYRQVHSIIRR
Description: (§1) During the blocking period, each recombinant receptor molecule was serially diluted from high to low concentrations, mixed evenly with 100 ng/well of VEGF-C or VEGF-D (both labeled with His-tag), allowing for incubation at room temperature for 30 minutes. […] The plates were washed with PBST, then anti-polyhistidine secondary antibody conjugated with horseradish peroxidase was added to allow for incubation and binding at room temperature for 1 hour. Then the plates were washed with PBST, TMB was added for color development, terminated with 5% hydrochloric acid solution, and finally, the OD values at 450 nm were read using a microplate reader.

[3] = biological target: T1, VEGF-A165; experiment: blocking ELISA: His-VEGF-A165 premixed with sample, binding to coated VEGFR2-Fc read with anti-His-HRP
[4] = biological target: T3, VEGF-D (UniProt O43915 89-205, limits assumed); experiment: blocking ELISA: His-VEGF-D premixed with sample, binding to coated VEGFR2-Fc read with anti-His-HRP
T3 construct: Bought reagent
T3 sequence (looked up): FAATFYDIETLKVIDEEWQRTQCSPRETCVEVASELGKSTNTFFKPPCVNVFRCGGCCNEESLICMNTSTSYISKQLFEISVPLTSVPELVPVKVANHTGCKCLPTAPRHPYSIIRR
Description: as §1

[5] = biological target: T2, VEGF-C; experiment: blocking ELISA: His-VEGF-C premixed with sample, binding to coated VEGFR2-Fc read with anti-His-HRP; remark: listed apart in the source
Description: as §1

[6] = biological target: T1, VEGF-A165; experiment: blocking ELISA: His-VEGF-A165 premixed with sample, binding to coated VEGFR2-Fc read with anti-His-HRP; remark: listed apart in the source
[7] = biological target: T3, VEGF-D; experiment: blocking ELISA: His-VEGF-D premixed with sample, binding to coated VEGFR2-Fc read with anti-His-HRP; remark: listed apart in the source
Description: as §1

[8] = biological target: T4, VEGF-B (UniProt P49765-2 22-188, limits assumed); experiment: ELISA, VEGF-B coated, anti-human Fc-HRP, OD450
T4 construct: Bought reagent
T4 sequence (looked up): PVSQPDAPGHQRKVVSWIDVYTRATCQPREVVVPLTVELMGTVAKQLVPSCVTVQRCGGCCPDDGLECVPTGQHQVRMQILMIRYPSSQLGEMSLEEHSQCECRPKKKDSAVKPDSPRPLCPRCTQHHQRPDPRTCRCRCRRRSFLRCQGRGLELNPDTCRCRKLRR

[9] = biological target: T5, PIGF (UniProt P49763-2 19-149, limits assumed); experiment: ELISA, PlGF coated, anti-human Fc-HRP, OD450
T5 construct: Bought reagent; also called PLGF; placental growth factor
T5 sequence (looked up): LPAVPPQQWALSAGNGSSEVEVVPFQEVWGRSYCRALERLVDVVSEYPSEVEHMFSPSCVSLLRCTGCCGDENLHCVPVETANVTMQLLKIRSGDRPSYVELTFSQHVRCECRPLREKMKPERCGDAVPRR

[10] = biological target: T3, VEGF-D; experiment: ELISA binding to VEGF-D, OD450
[11] = biological target: T3, VEGF-D; experiment: blocking ELISA, VEGF-D-His to coated VEGFR2-Fc; row head prints uM, ng/ml row implies nM
Description: as §1

[12] = biological target: T2, VEGF-C; experiment: blocking ELISA, VEGF-C-His to coated VEGFR3-Fc
Description: (§2) During the blocking period, each recombinant receptor molecule was serially diluted from high to low concentrations, mixed evenly with 10 ng/well of VEGF-C or 500 ng/well of VEGF-D (both labeled with His-tag), allowing for incubation at room temperature for 30 minutes. […] The plates were washed with PBST, then TMB was added for color development, terminated with 5% hydrochloric acid solution, and finally, the OD values at 450 nm were read using a microplate reader.

[13] = biological target: T3, VEGF-D; experiment: blocking ELISA, VEGF-D-His to coated VEGFR3-Fc
Description: as §2

[14] = biological target: T2, VEGF-C; experiment: blocking ELISA, VEGF-C-His to coated VEGFR2-Fc
Description: as §1

[15] = biological target: T5, PIGF; experiment: ELISA, PlGF coated, anti-human Fc-HRP, OD450; remark: listed apart in the source
[16] = biological target: T2, VEGF-C; experiment: SPR Biacore T200, trap captured on Protein A chip, antigen in flow; row shifted, N/A cell spans VEGF-A
[17] = biological target: T3, VEGF-D; experiment: as above
[18] = biological target: T4, VEGF-B; experiment: ELISA, VEGF-B coated, anti-human Fc-HRP, OD450; remark: listed apart in the source
[19] = biological target: T2, VEGF-C; experiment: blocking ELISA, VEGF-C-His to coated VEGFR3-Fc; row head prints uM, ng/ml row implies nM
Description: as §2

[20] = biological target: T2, VEGF-C; experiment: ELISA, coated VEGF-C, anti-human Fc-HRP
[21] = biological target: T2, VEGF-C; experiment: blocking ELISA, VEGF-C to VEGFR2 (Example 13)
[22] = biological target: T3, VEGF-D; experiment: blocking ELISA, VEGF-D to VEGFR3 (Example 13)
[23] = biological target: T2, VEGF-C; experiment: ELISA binding to VEGF-C, absorbance 450 nm
[24] = biological target: T3, VEGF-D; experiment: blocking ELISA, VEGF-D-His to coated VEGFR2-Fc
Description: as §1

[25] = biological target: T3, VEGF-D; experiment: blocking ELISA, VEGF-D to VEGFR2 (Example 13)

EC50 [1]: 27.2 nM
EC50 [2]: 11.4 nM
EC50 [3]: 3.1 nM
EC50 [4]: 4.12 nM
EC50 [5]: 5.66 nM
EC50 [6]: 2.26 nM
EC50 [7]: 1.09 nM
B1: LFV-P Recombinant receptor molecule (Fc fusion)
chain: YVQDYRSPFIASVSDQHGVVYITENKNKTVVIPCLGSISNLNVSLCARYPEKRFVPDGNRISWDSKKGFTIPSYMISYAGMVFCEAKINDESYQSIMYIVVVVGYRIYDVVLSPSHGIELSVGEKLVLQCTARTELNVGIDFNWEYPSSKHQHKKLVNRDLKTQSGSEMKKFLSTLTIDGVTRSDQGLYTCAASSGLMTKKNSTFVRVHEKGPG[here human IgG1 Fc without letters]

EC50 [1]: 6.59 nM
EC50 [8]: 1.8 nM
EC50 [2]: 14.4 nM
EC50 [3]: 3.02 nM
EC50 [4]: 5.38 nM
EC50 [9]: 0.436 nM
B2: LFV-S Recombinant receptor molecule (Fc fusion)
chain: YVQDYRSPFIASVSDQHGVVYITENKNKTVVIPCLGSISNLNVSLCARYPEKRFVPDGNRISWDSKKGFTIPSYMISYAGMVFCEAKINDESYQSIMYIVVVVGYRIYDVVLSPSHGIELSVGEKLVLNCTARTELNVGIDFNWEYPSSKHQHKKLVNRDLKTQSGSEMKKFLSTLTIDGVTRSDQGLYTCAASSGLMTKKNSTFVRVHEKGGGGSGRPFVEMYSEIPEIIHMTEGRELVIPCRVTSPNITVTLKKFPLDTLIPDGKRIIWDSRKGFIISNATYKEIGLLTCEATVNGHLYKTNYLTHRQTNTIIGPG[here human IgG1 Fc without letters]

EC50 [10]: 387 nM
EC50 [11]: 2010 nM
EC50 [12]: 0.3 µg/mL
EC50 [13]: 0.688 µg/mL and 5.73 nM
EC50 [14]: 3.57 µg/mL and 29.7 nM
binding result [15]: no binding (tested: log10 2 (100 nM))
Kd [16]: 0.0507 nM
koff [16]: 0.000167 s⁻¹
kon [16]: 3.29e+06 M⁻¹ s⁻¹
Kd [17]: 17.9 nM
koff [17]: 0.000311 s⁻¹
kon [17]: 17400 M⁻¹ s⁻¹
EC50 [2]: 14.5 nM
binding result [18]: no binding (tested: log10 2 (100 nM))
EC50 [19]: 2500 nM
EC50 [20]: 0.45 nM and 0.0546 µg/mL
EC50 [21]: 32.1 nM
EC50 [4]: 13.7 nM
EC50 [22]: 25.2 nM
EC50 [23]: 0.544 nM
EC50 [5]: 13.7 nM
EC50 [7]: 7.39 nM
EC50 [24]: 0.241 µg/mL
EC50 [25]: 24.6 nM
B3: OPT (Fc fusion)
chain: YSMTPPTLNITEESHVIDTGDSLSISCRGQHPLEWAWPGAQEAPATGDKDSEDTGVVRDCEGTDARPYCKVLLLHEVHAQDTGSYVCYYKYIKARIEGTTAASSYVFVRDFEQPFINKPDTLLVNRKDAMWVPCLVSIPGLNVTLRSQSSVLWPDGQEVVWDDRRGMLVSTPLLHDALYLQCETTWGDQDFLSNPFLVHITGNELYDIQLLPRKSLELLVGEKLVLNCTVWAEFNSGVTFDWDYPGKQAERGKWVPERRSQQTHTELSSILTIHNVSQHDLGSYVCKANNGIQRFRESTEVIVHE[here human IgG1 Fc without letters]
notes: also called control article OPT
